Patent publication US20130149312A1, “COMPOSITIONS AND METHODS FOR TREATING COPD EXACERBATION” (MCMASTER UNIVERSITY, priority 2010, published 2013)

Molecular target: T1, IL-1R1 (Homo sapiens, UniProt P14778)
T1 sequence (P14778 18-569): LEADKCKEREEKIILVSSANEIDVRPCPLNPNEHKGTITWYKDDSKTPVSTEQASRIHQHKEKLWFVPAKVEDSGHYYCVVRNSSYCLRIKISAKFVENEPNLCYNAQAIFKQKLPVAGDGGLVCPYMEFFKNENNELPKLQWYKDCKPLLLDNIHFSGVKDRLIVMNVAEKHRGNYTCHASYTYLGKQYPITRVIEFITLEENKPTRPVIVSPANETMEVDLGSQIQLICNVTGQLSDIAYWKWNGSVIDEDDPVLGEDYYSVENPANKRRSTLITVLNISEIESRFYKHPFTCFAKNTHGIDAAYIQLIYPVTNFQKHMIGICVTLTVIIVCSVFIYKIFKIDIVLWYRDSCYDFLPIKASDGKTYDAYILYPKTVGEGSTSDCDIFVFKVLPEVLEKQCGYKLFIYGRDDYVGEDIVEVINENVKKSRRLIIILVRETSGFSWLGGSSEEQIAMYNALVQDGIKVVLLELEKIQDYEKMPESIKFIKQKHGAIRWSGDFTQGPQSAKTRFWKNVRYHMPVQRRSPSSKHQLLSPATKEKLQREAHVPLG
Assay: IL-1beta induced IL-6 release in primary human COPD lung fibroblasts
Type: cell-based
Conditions: IL-1beta 0.5 ng/ml (approx. EC80), 24 hours, ELISA

B1: Antibody 6: human antibody that binds specifically to IL-1R1; VH SEQ ID NO: 1, VL SEQ ID NO: 5 (antibody, V domains shown)
VH: [letters of about 100 residues left out]PLYYYDEQYGVVYDAFVWGRGTMVTVSS
VL: QSVLTQPPSVSGAPGQRVTISCTGSSSNIGAGYDVHWYQQLPGTAPKLLIYGDTHRPSGVPDRFSGSKSGTSASLVIAGLQAEDEADYYCQSYDTVRLHHVFGGGTKLTVL
For B1, the “inhibition of IL-1beta induced IL-6 release” value was “completely inhibited” and the “inhibition of IL-1beta induced IL-6 release” value (listed as antibody 6) was “inhibited”.
